According to the RNAGym collection of RNA variant scans (doi:10.1093/nar/gkz1192):
Read counts are not given, so values of variants with three or more changes are uncertain.

B1: CPEB3 Ribozyme (parent)
chain: UAACAGGGGGCCACAGCAGAAGCGUUCACGUCGCAGCCCCUGUCAGAUUCUGGUGAAUCUGCGAAUUCUGCUGUAUAUCUC

Variants of: B1
Assay: self-cleavage, relative activity (ratio to wild type); higher = more cleavage; in vitro, sequencing
Outline: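 Relative activity compares each variant's cleaved/total read fraction with that of the unmutated ribozyme. To get these fractions, barcoded CPEB3 ribozyme libraries from rounds of error-prone PCR were transcribed with T7 RNA polymerase for 5 hours at 37°C and then given 15 min of DNase I treatment before EDTA was added. The RNAs were reverse transcribed with template switching and sequenced on Illumina, and DNA sequencing linked barcodes to variants. A minimum of 5 reads applied, and three batches were averaged.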

Variant	self-cleavage
AAACAGGGGGCCACAGCAGAAGCGUUCACGUCGCAGCCCCUGUCGGAUUCUUGUGAAUCUGCGAGCUCUGCUGUAUACCUC [U1A A45G G52U A65G U66C U78C]	0.12
AAACAGGGGGCCACAGCAGAAGCGUUCACGUCGCAGCCCCUGUCAGAUUCUGGUGGAUCUGCUAAAUUUGCUGUAUAUCUC [U1A A56G G63U U66A C68U]	0.23
AAACAGGGGGCCACAGCAGAAGCGUUCACGUCGCAGCCCCUGUCAGAUUCUGGUGAAUCUGCGGAUUCUGCUGUAUAUCCC [U1A A64G U80C]	1.08
AAACAGGGGGCCACAGCAGAAGCGUUCACGUCGCAGCCCCUGUCAGAUUCUGGUGAAUCUGCGAGUUCUGCUGUAUAUCAC [U1A A65G U80A]	0.41
AAAGAGGGGGCCACAGGAGAAGCGUUCCCGUCGCAGCCCCUGUCAGAUUCUGGUGAAUCUGCGAAUCCUGCUGUAUAUCUC [U1A C4G C17G A28C U67C]	0.15
AAAUAGGGGGCCACAGCAGAAGCGUUCAGGUCGCGGCCCCUGGCAGAUUCUGGUGAAUCUGCGAGUUCUGCUGUAUAUCUC [U1A C4U C29G A35G U43G A65G]	0.34
AAACAGGGGGGCACAGCAGAGGCGUUCACGUCGCAGCCCCGGUCAGAUUCUGGUGAAUCUGCGAAUUCUGCUGUAUAUCUC [U1A C11G A21G U41G]	0.08
AAACAGGGGGGCACAGCAGAAGCGUUCGCGUCGCAGCCCAUGUCAGAUUCUGGAGAAUCUGCGAAUUCUGCUGUAUAUCUC [U1A C11G A28G C40A U54A]	0.08
AAACAGGGGGGCACAGCAGAAGCGUUCACGCCGCUGCCCCUGACAGAUUCUGGUGAAUCUGCGAAUUCUGCUGUAUAUCUC [U1A C11G U31C A35U U43A]	0.14
AAACAGGGGGCACCAGCAGAAGCGUUCACGUCGCAGCCCCUGUCAGAUUCUGGGGAAUCUGCGAAUUCUGCUGUAAAUCCC [U1A C12A A13C U54G U76A U80C]	1.02
AAACAGGGGGCAACAGCAGUAGCGUUCACGUCGCUGCCCCUGUCGGAUUCUGGUGAAUCUGCGAAUUCUGCUGUAUAUCUC [U1A C12A A20U A35U A45G]	0.19
AAACAGGGGGCAACAGCAGAAGCGUCCACGCCGCAGCCCCUGUCAGAUUCUGGUGAAUCUGCGAAUUCUGCUGUAUAUCUC [U1A C12A U26C U31C]	0.39
AAACAGGGGGCAACAGCAGAAGCGUUCACGUCGCAGCCCCUGCCAGAUUCUGGUGAAUCUGCGAAUUCCGCCGUAUAUCUC [U1A C12A U43C U69C U72C]	0.09
AAACAGGGGGCUACAGCAGAGGCGUUCACGUCGCAGCCCCUUUCAUAUUCUGGUGAAUCUGCGAAUUCUGCUGUAUAUCUC [U1A C12U A21G G42U G46U]	0.09
AAACAGGGGGCUACAGCAGAAGCGUUCACUUCGCAGCCCCAGUCAGAUCCUGGUGAAUCUGCGAGUUCUGCUGUAUAUCUC [U1A C12U G30U U41A U49C A65G]	0.13
AAACAGGGGGCUACAGCAGAAGCGUUCACGUCGCAGCCCCUGUCAGAUUCUGGUGAAUCUGCGAAUUCCGCUGUAUAUCUC [U1A C12U U69C]	0.95
AAACAGGGGGCCACAGAAGAAGCGCUCACGUCGCAGCCCCUGUCAGGUUCUGGUGUAUCUGCGAAUUCUGCUGUAUACCUC [U1A C17A U25C A47G A56U U78C]	0.07

Variant	self-cleavage
AAACAGGGGGCCACAGGAGAAGCGUCCACGUCGCAGCCCCUGCCAGAUUCUGGUGGAUCUGCGAAUUCUGCUGUAUAUCCC [U1A C17G U26C U43C A56G U80C]	0.09
AAACAGGGGGCCACAGCAGAAGCGUUCAUGUCGCAGCCCCUGUCGGAUUCUGGUGAAUCUGCGAAUUCUGCUGUAUGUCUC [U1A C29U A45G A77G]	0.28
AAACAGGGGGCCACAGCAGAAGCGUUCAUGUCACAACCCCUGUCAGAUUCUGGUGAAUCUGCAAAUUCUGCUGUAUAUCUC [U1A C29U G33A G36A G63A]	0.13
AAACAGGGGGCCACAGCAGAAGCGUUCACGUAGCAGCCCCUGUCAGAUUCUGGUGGAUCUGCGAACUCUGCUGUAUACCUC [U1A C32A A56G U66C U78C]	0.15
AAACAGGGGGCCACAGCAGAAGCGUUCACGUCGCAGCCCCUGUCAGAUUCUGGUGAAUCUGGGUAUUCUGCUGUAUAUCUC [U1A C62G A64U]	0.15
AAACAUGGGGCCACAGCCGUAGCGUUCACGUCGCAGCCCCUGUCAGAUUCUGGUGAAUCUGAGAAUUCCGCUGUAUAUCCC [U1A G6U A18C A20U C62A U69C U80C]	0.13
AAACAUGGGGCCACAGUAGGAGCGCUCACGUCGCAGCCCCUGUCAGGUUCUGUUGAAUCUGCGAAUUCUGCUGUAUAUCUC [U1A G6U C17U A20G U25C A47G G53U]	0.18
AAACAGAGGGACACAGCAGAAGCGUUCACGUCGCAGCCCCUGUCAGAUUCUGGUGAAUCUGCGAGUUCUGCUGUAUGUCUC [U1A G7A C11A A65G A77G]	0.06
AAACAGUGGGCCACGGCAGAAGCGUUCACGUCGCAGCCCCUGUCAGAUUCCGGUGAAUCUGCGAAUUCCGCUGUAUAUCUC [U1A G7U A15G U51C U69C]	0.21
AAACAGUGCGCCACAGCAGAAGCGUUCACGUCGCAGCCCCUGUCAGAUUCUGGUGAAUCUGCGAAUUCGGCUGUAUAUCUC [U1A G7U G9C U69G]	0.07
AAACAGGAGGCCACAGCAGAAGCGUUCACGUCGCAGCCCCUGUCAGAUUCUGGUGAAUCUGCGAGUUCUGCUGUAUAUCCC [U1A G8A A65G U80C]	0.08
AAACAGGGAGCCACAGCAGCAGCGUUCACGUCGCAGCCCCUGUCAGAUUCUGGUGAAUCUGCGAAUUCUGCUGUAUAUCUC [U1A G9A A20C]	0.06
AAACAGGGUGCCACAGCAGAAGCGUUCACGUCGCAGCCCCUGUCAGGUUCUGGUGAAUCUGCGAAUUCUGUUGUAUAUCUC [U1A G9U A47G C71U]	0.06
AAACAGGGUGCCACAGCAGAAGCGUUCACGUCGCAGCCCCUGUCAGAUUCUGGUGGAUCUGCGAAAUUUGCUGUAUAUCUC [U1A G9U A56G U66A C68U]	0.14
AAACAGGGGACCACAGCAGAAGCGUUCACGUCGCUGUCCCUGUCAGAUUCUGGUGAAUCUGCGAAUUCUGCUGAAUAUCUC [U1A G10A A35U C37U U74A]	0.68
AAACAGGGGAUCACAGCAGAAGCGCUCACGUCGCAGCCCCUGUCAGAUUCUGGUGGAUCUGCGAAUUCUGCUGUUUAUCUC [U1A G10A C11U U25C A56G A75U]	0.06
AAACAGGGGACCACAGCAGAAGCGUUCACGUCGCAGCCCCUAUCAGAUUCUGGUGGAUCUGCGUAUUCUGCUGUAUACCUC [U1A G10A G42A A56G A64U U78C]	0.04
